Assay results from PubChem BioAssay AID624417 (National Center for Advancing Translational Sciences (NCATS), 2012).
The whole screen tested about 410,000 compounds, of which about 6,400 (1.6%) were called active. The inconclusive results got no clear call from the source; some entries with a clear call stand among them for comparison. The call rests on the fitted dose curve; in most records, active means well fitted inhibition curve with a large enough effect; inconclusive means small, poorly fitted or top-dose-only effect; inactive means no such curve, though single readings can be large or run the other way. Potencies beside an inconclusive call are fits to weak or partial responses and may not hold up.

Target: Glucagon-like peptide 1 receptor (Homo sapiens) (UniProt P43220)
Experiment: qHTS of GLP-1 Receptor Inverse Agonists (Inhibition Mode); further: nearly all actives have a fitted effect of over 55% in size
Settings: HEK293 GLP-1R CRE-luciferase, luminescence, 24 h, GLP-1R form is constitutively active; series mostly up to 38.3 µM
Outline: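 Using stably transfected HEK293 (constitutively active GLP-1R, cAMP-luciferase reporter), compounds were incubated 24 hr and luciferase measured by luminescence.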
Potency means the concentration at half of the fitted maximal effect; tags describe the fitted curve by direction and shape.

UniProt P43220, sequence (P43220 whole entry, looked up): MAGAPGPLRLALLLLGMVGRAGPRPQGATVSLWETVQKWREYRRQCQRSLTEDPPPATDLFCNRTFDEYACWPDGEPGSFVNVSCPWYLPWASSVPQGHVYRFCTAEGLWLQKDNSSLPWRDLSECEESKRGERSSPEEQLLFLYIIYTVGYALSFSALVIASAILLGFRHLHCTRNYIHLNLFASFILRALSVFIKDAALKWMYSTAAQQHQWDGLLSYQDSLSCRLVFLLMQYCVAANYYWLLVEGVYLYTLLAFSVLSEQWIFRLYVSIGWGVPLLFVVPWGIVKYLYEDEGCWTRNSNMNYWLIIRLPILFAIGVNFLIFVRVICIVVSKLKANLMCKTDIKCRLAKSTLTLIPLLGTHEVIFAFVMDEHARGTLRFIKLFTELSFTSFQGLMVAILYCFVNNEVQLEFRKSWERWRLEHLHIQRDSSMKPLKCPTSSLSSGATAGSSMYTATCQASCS

Potency, inactive:
O=S(=O)(Nc1nccs1)c1ccc(NS(=O)(=O)c2c(F)cc(F)c(Cl)c2F)cc1, Cc1ccc(NC(=O)Cn2c(=O)n(Cc3ccco3)c(=O)c3oc4ccccc4c32)cc1C, CCN(Cc1ccccc1)C(=O)Cn1c(=O)n(-c2ccccc2)c(=O)c2c1c1cc(C)ccc1n2C, Cc1cccc(C(=O)NNC(=O)c2c(-c3ccccc3Cl)noc2C)c1O, O=C(Nc1ccc(Cc2ccncc2)cc1)c1ccc(Cl)c([N+](=O)[O-])c1, c1coc(Cn2c(-c3ccco3)nc3ccccc32)c1, CCN(C(=O)C1CCN(S(=O)(=O)c2cc(Br)cc3c2N(C(C)=O)CC3)CC1)c1cccc(C)c1, O=C(CSc1nccn1-c1cccc(Cl)c1)Nc1ccc2c(c1)OCO2, O=C(/C=C/c1ccc(-c2ccccc2)cc1)NCc1cccnc1, CC(C)(C)NC(=O)C(c1cccc2ccccc12)n1c(=O)c(-c2ccccc2)nc2ccccc21 (configuration not stated), N#CC1=C(O)C(c2ccccc2)n2c1nc(=O)c1ccccc12 (configuration not stated), O=C(COc1ccccc1O)NCCN1CCOCC1, COc1ccc(C2CC(=O)Nc3c2c(=O)[nH]c2nc4ccccc4n32)cc1 (configuration not stated)

Potency, inconclusive:
O=C(NCc1cccc(C(F)(F)F)c1)c1[nH]c(C(F)(F)F)nc1-c1ccccc1 11.2 µM [inhibitor, single point], O=C(COC(=O)c1ccccc1O)Nc1ccc2ccccc2c1 28.2 µM [inhibitor, single point], CCn1c(SCC(=O)Nc2cc(C)c(Cl)cc2OC)nnc1-c1ccco1 1.41 µM [inhibitor, full curve], CN(C)CCCN(C(=O)/C=C/c1cccs1)c1nc2ccc(F)cc2s1 8.91 µM [inhibitor, partial curve, poor fit], O=C(NC1Cc2ccccc2C1)c1cc(COc2cccc(C(F)(F)F)c2)on1 4.47 µM [inhibitor, full curve, poor fit], CCN1CCN(CC(=O)N2c3ccccc3Sc3ccccc32)CC1 28.2 µM [inhibitor, single point], CN(CC(=O)Nc1cccc(F)c1)C(=O)c1ccccc1Sc1ccccc1C#N 14.1 µM [inhibitor, partial curve, poor fit], COc1cc2[nH]c3c(=O)n(CCN(C(C)C)C(C)C)cnc3c2cc1OC 22.4 µM [inhibitor, single point], CCC(=O)N1CC23C=CC(CC2CC12CCCCC2)O3 (configuration not stated) 28.2 µM [inhibitor, single point], Cc1ccsc1CCNC(=O)C1CCC(=O)N(CCc2cccc(F)c2)C1 (configuration not stated) 14.1 µM [inhibitor, single point], CO/N=C/C(=N\Nc1ccc(C)cc1)C(=O)c1ccc(OC)cc1 1.58 µM [inhibitor, partial curve, poor fit], Cc1ccc(NC(=S)Nc2ccc(OC(F)F)c(Cl)c2)cc1F 28.2 µM [inhibitor, single point], CCOC(=O)[C@]12CCCC=C1N(Cc1ccc(Cl)cc1Cl)C(=O)[C@H](CC(=O)NCC1CCCCC1)C2 10 µM [inhibitor, partial curve, poor fit], CCOc1ccccc1CN1C(=O)C2(OCCO2)c2ccccc21 28.2 µM [inhibitor, single point], CCC1CCCCN1CCCNC(=O)c1ccc2nc(N3CCCCC3)sc2c1 (configuration not stated) 2.51 µM [inhibitor, full curve, poor fit], COc1ccc(NC(=S)N/N=C/c2ccc(F)cc2)cc1OC 28.2 µM [inhibitor, single point], COc1cccc(-n2c(C)nn(C)c2=O)c1 10 µM [inhibitor, single point], Cn1c(=O)oc2cc(S(=O)(=O)CCC(=O)N3CCN(c4ccccc4F)CC3)ccc21 28.2 µM [inhibitor, single point], COc1ccc(CN2C(=O)C(Cc3ccccc3)Nc3ncnc(N4CCCCC4)c32)cc1 (configuration not stated) 14.1 µM [inhibitor, single point], CC(C(=O)c1ccc(-c2ccccc2)cc1)[n+]1ccccc1 (configuration not stated) 3.16 µM [inhibitor, full curve, poor fit], Cc1ccc(C(=O)NCCS(=O)(=O)N2CCN(c3ccccc3F)CC2)cc1[N+](=O)[O-] 7.94 µM [inhibitor, partial curve, poor fit], COc1ccccc1NC(=O)COc1cc(Br)c(CNCCCN2CCOCC2)cc1OC 6.31 µM [inhibitor, partial curve, poor fit], O=C(CSC1=NCCS1)Nc1ccc(S(=O)(=O)N2CCCCCC2)cc1 12.6 µM [inhibitor, single point], COc1ccc(S(=O)(=O)N(C)CC(=O)NCCCn2ccnc2)cc1Cl 12.6 µM [inhibitor, single point], O=C(NCc1cccs1)Nc1cc(Cl)ccc1Cl 7.94 µM [inhibitor, partial curve, poor fit], CCOC(=O)Cc1csc(SCC(=O)NC(C)C23CC4CC(CC(C4)C2)C3)n1 (configuration not stated) 28.2 µM [inhibitor, single point], CN(CCC#N)C(=O)COC(=O)c1ccc2[nH]c3c(c2c1)CCCC3 14.1 µM [inhibitor, partial curve, poor fit], O=C(CSc1nc2ccccc2c(=O)n1-c1ccccc1)N1CCCc2ccccc21 22.4 µM [inhibitor, single point], Cc1ccccc1COC[C@H](CC(C)C)N1CCN(C(=O)c2cccc(C(F)(F)F)c2)CCC1=O 11.2 µM [inhibitor, single point], CC(C(=O)Nc1ccc(O)cc1)c1cccc(C(=O)c2ccccc2)c1 (configuration not stated) 28.2 µM [inhibitor, single point], O=C(c1ccc(CS(=O)Cc2ccc(Cl)cc2)o1)N1CCN(c2ccccn2)CC1 (configuration not stated) 15.8 µM [inhibitor, single point], COc1ccc(-c2noc(CCC(=O)NCCCN3CCN(c4ccccc4F)CC3)n2)cc1 10 µM [inhibitor, partial curve, poor fit], CCOc1ccc(NC(=S)N(CCCN2CCOCC2)Cc2cn(C)c3ccccc23)cc1 8.91 µM [inhibitor, single point], N[C@@H](Cc1cc(I)c(Oc2ccc(O)c(I)c2)c(I)c1)C(=O)O 10 µM [inhibitor, single point], Cc1ccc(OCc2nnc(SCC(=O)Nc3ccc4c(c3)OCCO4)n2Cc2ccco2)cc1 28.2 µM [inhibitor, single point], CC(O)c1cccc(NC(=O)CC(c2ccccc2)c2ccccc2)c1 (configuration not stated) 10 µM [inhibitor, partial curve], CC(C)c1cc(C(=O)N2CCN(C(c3ccccc3)c3ccccc3)CC2)no1 10 µM [inhibitor, partial curve, poor fit], Brc1ccc(-c2noc(COc3ccc4c(c3)CCC4)n2)o1 14.1 µM [inhibitor, single point], CSc1nsc(NC(=O)Nc2ccccc2)n1 12.6 µM [inhibitor, single point], Cc1ccccc1COC(=O)c1nn(-c2ccccc2)nc1N 17.8 µM [inhibitor, single point], CCN(Cc1ccccc1)C(=O)c1cccc(S(=O)(=O)N2CCN(Cc3ccccc3)CC2)c1 31.6 µM [inhibitor, single point], CCN(C(=O)c1ccc(Cl)cc1[N+](=O)[O-])c1ccccc1C 4.47 µM [inhibitor, partial curve, poor fit], S=C(NCc1ccco1)N/N=C/c1ccccc1Cl 11.2 µM [inhibitor, partial curve, poor fit], CCCCCCN1C[C@H](O)[C@@H](n2cc(C3CC3)nn2)C[C@@H]1c1ccc(Cl)cc1 28.2 µM [inhibitor, single point], CCCCOC(=O)Cn1c(=O)n(CC(=O)OCCCC)c2ccccc21 20 µM [inhibitor, partial curve, poor fit], CC12CC(c3ccccc3O1)N(C(=O)c1ccco1)C(=O)N2c1ccccc1 (configuration not stated) 8.91 µM [inhibitor, partial curve, poor fit], COc1ccc(CN(C(=S)Nc2ccccc2)C2CC(=O)N(c3ccc(Cl)cc3)C2=O)cc1 (configuration not stated) 7.08 µM [inhibitor, partial curve, poor fit], O=C(Nc1ccc2c(c1)OCCO2)C(c1cc2ccccc2o1)N1CCN(C/C=C/c2ccccc2)CC1 (configuration not stated) 4.47 µM [inhibitor, full curve], CCN1CCN(Cc2ccc(NC(=O)c3cc(NC(=O)N4CCNC4=O)cc(OC)c3)cc2C(F)(F)F)CC1 28.2 µM [inhibitor, single point]
